We go through 115 sequences from the BET-seq Pho4 binding data (Le et al. 2018).

This is one part of the list. These are noisy estimates, calculated here from bound and input reads.

This assay has as its target T1, Pho4 (S. cerevisiae) (UniProt P07270).
T1 sequence: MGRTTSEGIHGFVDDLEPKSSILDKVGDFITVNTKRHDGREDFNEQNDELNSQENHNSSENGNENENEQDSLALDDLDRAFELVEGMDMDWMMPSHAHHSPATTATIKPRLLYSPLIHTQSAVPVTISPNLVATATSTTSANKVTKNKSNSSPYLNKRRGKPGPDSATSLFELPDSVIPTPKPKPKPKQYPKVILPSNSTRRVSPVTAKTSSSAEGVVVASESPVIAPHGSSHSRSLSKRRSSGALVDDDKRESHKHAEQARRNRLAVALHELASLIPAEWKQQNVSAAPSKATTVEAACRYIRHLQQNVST
As to the kind of experiment: relative binding free energy (BET-seq); higher = weaker binding. Conditions: reference: library average.
With GCATGCACGTGTGGGT, the “relative binding free energy” value was 0.03 kcal/mol.

In the case of GTGGACACGTGACTGT, the “relative binding free energy” value came to 0.19 kcal/mol.

Turning to TTGGCCACGTGGCTAG, the “relative binding free energy” value was determined as 0.03 kcal/mol.

On to TTCTACACGTGGGGGA, for which the “relative binding free energy” value is -0.09 kcal/mol.

With TGTCGCACGTGATGGC, the “relative binding free energy” value was 0.08 kcal/mol.

As to TGGCCCACGTGGTGTT, the “relative binding free energy” value is -0.26 kcal/mol.

On to GGATCCACGTGGGCGG, for which the “relative binding free energy” value was -0.14 kcal/mol.

For the sequence TGTTACACGTGCGGAG, the “relative binding free energy” value worked out at 0.25 kcal/mol.

Turning to CGGCGCACGTGAGGGA, the “relative binding free energy” value stood at 0.08 kcal/mol.

In the case of TTCTTCACGTGTGTCT, the “relative binding free energy” value worked out at 0.25 kcal/mol.

With TGGCGCACGTGGTTGC, the “relative binding free energy” value is -0.13 kcal/mol.

Turning to AGCGTCACGTGGGATG, the “relative binding free energy” value was -0.03 kcal/mol.

For the sequence GTGCGCACGTGGCGTA, the “relative binding free energy” value was -0.18 kcal/mol.

For AGTAGCACGTGTTTGT, the “relative binding free energy” value is -0.02 kcal/mol.

As for ATGTGCACGTGCGTCG, the “relative binding free energy” value was -0.02 kcal/mol.

With CGTTGCACGTGTCGGT, the “relative binding free energy” value was 0.11 kcal/mol.

Take TTCGGCACGTGATAAT: the “relative binding free energy” value was found to be 0.1 kcal/mol.

Take TTCGGCACGTGATATG: the “relative binding free energy” value was -0.05 kcal/mol.

As to TGTGGCACGTGTTGAC, the “relative binding free energy” value was -0.13 kcal/mol.

With CTGTACACGTGTAAGG, the “relative binding free energy” value came to 0.15 kcal/mol.

In the case of TATTACACGTGTGTGA, the “relative binding free energy” value was found to be 0.17 kcal/mol.

On to AAGAGCACGTGGGGGT, for which the “relative binding free energy” value was -0.13 kcal/mol.

TTTCTCACGTGGGCTT: the “relative binding free energy” value is 0.15 kcal/mol.

As for TCCGGCACGTGTTAGG, the “relative binding free energy” value was -0.01 kcal/mol.

For the sequence ATTGGCACGTGGTCGC, the “relative binding free energy” value was -0.33 kcal/mol.

Consider AGTTGCACGTGTTAGG, for which the “relative binding free energy” value amounted to 0.05 kcal/mol.

With AAGTCCACGTGATTGG, the “relative binding free energy” value worked out at 0.33 kcal/mol.

Turning to TGTGGCACGTGGGCGT, the “relative binding free energy” value was -0.21 kcal/mol.

Consider CAAGACACGTGGTGGT, for which the “relative binding free energy” value is -0.17 kcal/mol.

On to TTAGACACGTGCGCGG, for which the “relative binding free energy” value is -0.13 kcal/mol.

In the case of CGGGACACGTGAAGTT, the “relative binding free energy” value worked out at 0.35 kcal/mol.

Regarding CAGGGCACGTGTATTA, the “relative binding free energy” value was determined as 0.07 kcal/mol.

GGGAGCACGTGGGGCG: the “relative binding free energy” value was -0.1 kcal/mol.

For AGGCGCACGTGCGGTT, the “relative binding free energy” value was -0.25 kcal/mol.

Regarding ATGTTCACGTGTCTGG, the “relative binding free energy” value was found to be 0.23 kcal/mol.

In the case of GGCCGCACGTGAGGTG, the “relative binding free energy” value came out at 0.06 kcal/mol.

Take TATGACACGTGGAGAG: the “relative binding free energy” value came to 0 kcal/mol.

Regarding TGAGTCACGTGCTCGG, the “relative binding free energy” value was 0.15 kcal/mol.

As to AAGGTCACGTGAGTTA, the “relative binding free energy” value turned out to be 0.16 kcal/mol.

Regarding AATGTCACGTGCTGGT, the “relative binding free energy” value was found to be 0.05 kcal/mol.

For GAAGTCACGTGTGGAA, the “relative binding free energy” value is 0.12 kcal/mol.

As for AGGGTCACGTGTCGGT, the “relative binding free energy” value turned out to be 0.19 kcal/mol.

Take TTATGCACGTGTCCGT: the “relative binding free energy” value was -0.02 kcal/mol.

In the case of CTTTTCACGTGGTAAT, the “relative binding free energy” value came out at 0.18 kcal/mol.

Take CGTATCACGTGTTTAG: the “relative binding free energy” value came to 0.14 kcal/mol.

Take CTTGTCACGTGGTGGA: the “relative binding free energy” value is 0.03 kcal/mol.

For the sequence TAAAACACGTGGTATT, the “relative binding free energy” value was -0.1 kcal/mol.

Regarding AGTTACACGTGGGGCC, the “relative binding free energy” value is 0.02 kcal/mol.

Take GTTGTCACGTGGATTA: the “relative binding free energy” value stood at 0.14 kcal/mol.

On to TGGGTCACGTGATGCG, for which the “relative binding free energy” value amounted to 0.15 kcal/mol.

Consider GCTATCACGTGTGTTT, for which the “relative binding free energy” value was determined as 0.24 kcal/mol.

With AGGGACACGTGGGTAG, the “relative binding free energy” value is -0.17 kcal/mol.

Consider GTATTCACGTGAGATA, for which the “relative binding free energy” value worked out at 0.39 kcal/mol.

On to ATGCGCACGTGCCGGG, for which the “relative binding free energy” value is -0.06 kcal/mol.

Turning to AGGATCACGTGCGTTT, the “relative binding free energy” value amounted to 0.2 kcal/mol.

With AGGTGCACGTGGTAAT, the “relative binding free energy” value was -0.17 kcal/mol.

Turning to TTGGCCACGTGAGGTC, the “relative binding free energy” value turned out to be 0.33 kcal/mol.

Turning to GGTTGCACGTGTCTGT, the “relative binding free energy” value was -0.03 kcal/mol.

For GGATACACGTGAAGGG, the “relative binding free energy” value came to 0.27 kcal/mol.

With CATATCACGTGTGTTT, the “relative binding free energy” value came out at 0.07 kcal/mol.

For TTGTCCACGTGGATTA, the “relative binding free energy” value turned out to be 0.04 kcal/mol.

Take TGTTACACGTGGACTA: the “relative binding free energy” value came out at 0.14 kcal/mol.

For TGGGTCACGTGTGACG, the “relative binding free energy” value came to 0.15 kcal/mol.

In the case of GCTCGCACGTGGGATG, the “relative binding free energy” value was -0.11 kcal/mol.

Regarding AGTTACACGTGCGTTG, the “relative binding free energy” value turned out to be 0.08 kcal/mol.

As for CGTTGCACGTGGGTCG, the “relative binding free energy” value is -0.17 kcal/mol.

For GGCGCCACGTGTGGTG, the “relative binding free energy” value worked out at 0.08 kcal/mol.

TGCTTCACGTGGGTTC: the “relative binding free energy” value is -0.03 kcal/mol.

Regarding TGGGTCACGTGGTGCT, the “relative binding free energy” value turned out to be 0.04 kcal/mol.

In the case of CTAAGCACGTGTTTAG, the “relative binding free energy” value was -0.08 kcal/mol.

As to TGTAGCACGTGTAAAT, the “relative binding free energy” value stood at 0.15 kcal/mol.

For GTTAACACGTGAGGTA, the “relative binding free energy” value came to 0.19 kcal/mol.

For TTGTACACGTGCCGGG, the “relative binding free energy” value was -0.04 kcal/mol.

For TATTCCACGTGTTTAG, the “relative binding free energy” value came out at 0.13 kcal/mol.

In the case of GAGGGCACGTGGAGAA, the “relative binding free energy” value was -0.06 kcal/mol.

Regarding CTTTTCACGTGGTAGC, the “relative binding free energy” value came out at 0.31 kcal/mol.

For the sequence GGTCTCACGTGGTGAA, the “relative binding free energy” value amounted to 0.2 kcal/mol.

CGTTTCACGTGAAGGT: the “relative binding free energy” value was 0.32 kcal/mol.

For TTCTGCACGTGAGGAG, the “relative binding free energy” value stood at 0.29 kcal/mol.

With CGGCGCACGTGCGGGG, the “relative binding free energy” value was -0.3 kcal/mol.

As for TATTACACGTGGGGGT, the “relative binding free energy” value is -0.1 kcal/mol.

On to AGTACCACGTGTTTGG, for which the “relative binding free energy” value is -0.09 kcal/mol.

ATCTTCACGTGTATGG: the “relative binding free energy” value amounted to 0.15 kcal/mol.

Take TTCGTCACGTGTGCTA: the “relative binding free energy” value amounted to 0.07 kcal/mol.

In the case of TTGTTCACGTGCAAGG, the “relative binding free energy” value came out at 0.33 kcal/mol.

On to TTGAACACGTGTTTGA, for which the “relative binding free energy” value was 0.14 kcal/mol.

As to TGGGGCACGTGAAGAA, the “relative binding free energy” value was found to be 0.1 kcal/mol.

Regarding TTGTACACGTGTCGTC, the “relative binding free energy” value is 0.12 kcal/mol.

Consider CCTGGCACGTGAGGTT, for which the “relative binding free energy” value stood at 0.17 kcal/mol.

With AATGGCACGTGCTAGG, the “relative binding free energy” value was -0.12 kcal/mol.

Regarding AGGATCACGTGATTTG, the “relative binding free energy” value worked out at 0.22 kcal/mol.

With CTAGTCACGTGTAGTA, the “relative binding free energy” value is 0.09 kcal/mol.

As for GGTTTCACGTGGTGAT, the “relative binding free energy” value is 0.35 kcal/mol.

As to GTAGTCACGTGCGAGT, the “relative binding free energy” value came to 0.07 kcal/mol.

With GGATGCACGTGAGCTA, the “relative binding free energy” value is 0.4 kcal/mol.

Turning to AGTGGCACGTGAGCAT, the “relative binding free energy” value worked out at 0.04 kcal/mol.

Consider ATATACACGTGTGTAT, for which the “relative binding free energy” value was determined as 0.05 kcal/mol.

Take TTCGGCACGTGTTGCT: the “relative binding free energy” value was -0.12 kcal/mol.

On to AAGGGCACGTGGGCTT, for which the “relative binding free energy” value was -0.21 kcal/mol.

Consider ATGGGCACGTGGGTGC, for which the “relative binding free energy” value was -0.14 kcal/mol.

TATTACACGTGGAGTG: the “relative binding free energy” value came to 0.01 kcal/mol.

ACGTTCACGTGGTCGG: the “relative binding free energy” value was determined as 0.14 kcal/mol.

Consider AGGTGCACGTGCATGT, for which the “relative binding free energy” value is -0.01 kcal/mol.

Regarding TGTGACACGTGGGTGT, the “relative binding free energy” value was -0.11 kcal/mol.

Consider TCTATCACGTGGAATT, for which the “relative binding free energy” value turned out to be 0.32 kcal/mol.

Take ATTTGCACGTGTTCAT: the “relative binding free energy” value was 0.01 kcal/mol.

Consider TTTTGCACGTGTGTAG, for which the “relative binding free energy” value was 0.09 kcal/mol.

For the sequence TCTTTCACGTGAGTGG, the “relative binding free energy” value came to 0.37 kcal/mol.

For GGACGCACGTGAAGTG, the “relative binding free energy” value stood at 0.3 kcal/mol.

TTGGGCACGTGTTATG: the “relative binding free energy” value is -0.11 kcal/mol.

Take ATGGGCACGTGTTGGA: the “relative binding free energy” value was -0.03 kcal/mol.

On to TTTGTCACGTGAAGTT, for which the “relative binding free energy” value is 0.49 kcal/mol.

For GATGGCACGTGCTTTG, the “relative binding free energy” value is -0.01 kcal/mol.

As for GAAGGCACGTGGGTAG, the “relative binding free energy” value was -0.09 kcal/mol.

Consider GGCGCCACGTGGAAGG, for which the “relative binding free energy” value was 0.01 kcal/mol.
